PMC4336329 (PLoS ONE, 2015)
The campaign covered roughly 310,000 compounds. About 2,200 (0.71%) showed an effect of 50% or more. The effect is printed as a negative number. Some of the results follow.

target: human ether-à-go-go-related gene (hERG) potassium channel (human, UniProt Q12809); assay: primary screen, population patch clamp on CHO cells stably expressing hERG
Sequence (Q12809 whole entry, looked up): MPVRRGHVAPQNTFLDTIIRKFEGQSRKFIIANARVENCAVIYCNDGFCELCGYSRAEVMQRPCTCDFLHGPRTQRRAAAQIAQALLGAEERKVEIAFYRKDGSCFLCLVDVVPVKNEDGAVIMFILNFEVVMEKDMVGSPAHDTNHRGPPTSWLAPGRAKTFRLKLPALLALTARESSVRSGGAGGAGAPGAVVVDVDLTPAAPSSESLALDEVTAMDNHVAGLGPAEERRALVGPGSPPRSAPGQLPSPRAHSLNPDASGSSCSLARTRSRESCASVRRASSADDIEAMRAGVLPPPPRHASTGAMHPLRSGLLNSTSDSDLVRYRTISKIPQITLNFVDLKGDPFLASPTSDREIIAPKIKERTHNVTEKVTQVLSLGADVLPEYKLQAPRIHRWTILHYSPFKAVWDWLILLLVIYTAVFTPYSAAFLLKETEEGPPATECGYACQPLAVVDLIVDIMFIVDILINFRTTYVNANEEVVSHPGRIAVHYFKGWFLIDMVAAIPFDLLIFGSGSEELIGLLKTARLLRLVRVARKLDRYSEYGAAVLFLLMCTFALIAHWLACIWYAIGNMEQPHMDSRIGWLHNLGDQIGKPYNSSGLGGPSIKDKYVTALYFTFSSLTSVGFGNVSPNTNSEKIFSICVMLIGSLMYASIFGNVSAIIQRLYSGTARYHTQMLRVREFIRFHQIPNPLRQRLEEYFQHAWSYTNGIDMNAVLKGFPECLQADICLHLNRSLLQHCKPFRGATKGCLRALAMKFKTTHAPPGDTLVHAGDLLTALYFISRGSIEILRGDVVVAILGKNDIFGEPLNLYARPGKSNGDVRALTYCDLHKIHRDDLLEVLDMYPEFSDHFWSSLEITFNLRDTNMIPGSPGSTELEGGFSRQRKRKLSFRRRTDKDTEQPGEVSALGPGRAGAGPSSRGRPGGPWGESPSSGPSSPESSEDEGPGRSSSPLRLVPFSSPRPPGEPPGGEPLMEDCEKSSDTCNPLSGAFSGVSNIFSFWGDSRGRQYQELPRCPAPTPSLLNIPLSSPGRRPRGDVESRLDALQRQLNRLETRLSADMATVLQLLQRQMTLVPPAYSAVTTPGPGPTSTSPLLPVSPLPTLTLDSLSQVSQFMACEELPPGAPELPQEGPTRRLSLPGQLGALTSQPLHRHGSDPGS

Row | Compound | hERG current change (%, negative = inhibition) at 1uM [%]
1 | COc1ccccc1N(CC(=O)Nc1ccccc1C(=O)N1CCOCC1)S(C)(=O)=O | 17
2 | COc1ccc2[nH]c3c(c2c1)CCN1C(=O)N([C@@H](C)C(=O)NCc2ccccc2OC)C(=O)[C@]31C | 10.2
3 | CCCCNC(=O)CSc1nnc(Cc2ccccc2)n1CC | -1.86
4 | CN(C)Cc1c(O)c(Cl)cc2c3c(c(=O)oc12)CCCC3 | 13.6
5 | CCOC(=O)C1(CCOc2ccccc2)CCN(Cc2ccc(O)cc2)CC1 | -84.8
6 | COc1cc([C@@H]2CC=C(C(=O)O)[C@H](c3cccc(Cl)c3)N2S(=O)(=O)c2ccc(C)cc2)cc(OC)c1OC | 18.4
7 | S=c1[nH]c2ccc3ccccc3c2[nH]1 | 13.3
8 | COC(=O)C1=C(C)NC(=O)/C1=C\c1cc(C)n(-c2cc(C)cc(C)c2)c1C | 9.19
9 | CCCCN1CC(=O)N2[C@H](c3ccc(OC)cc3)[C@@H]3C(=O)N(CC)C(=O)[C@@H]3[C@]2(C)C1=O | 8.13
10 | CCCC(c1nnnn1Cc1ccco1)N1CCN(C(=O)c2ccco2)CC1.Cl (centres unmarked) | 3.99
11 | O=S(=O)(c1ccc(SCc2ccccc2)nc1)N1CCCCC1 | 11.2
12 | Cc1cccc(N2C(=O)CC(c3ccc(F)cc3)C3=C2COC3=O)c1 (centres unmarked) | -1.02
13 | CCOC(=O)CSc1ccc2nnc(-c3cccs3)n2n1 | -25.7
14 | CCOc1c2ccc(C(=O)NCc3ccc(C(F)(F)F)cc3C(F)(F)F)cc2nn1C | 1.01
15 | Brc1ccc(CNc2nc3ccccc3n2CCN2CCCCC2)cc1 | 11.1
16 | CC(=O)c1cccc(NC(=O)Nc2ccc(C(=O)N3CCCC3)cc2)c1 | 10.2
17 | CCOC(=O)N/N=C(/C)c1ccc([N+](=O)[O-])o1 | 10.7
18 | N#CCCn1nc(-c2ccc(Br)cc2)cc1Nc1ccccc1NC(=O)C(F)(F)F | 16.1
19 | Cn1ncc2c(=O)[nH]cnc21 | 15.2

Row | Compound | hERG current change (%, negative = inhibition) at 1uM [%]
20 | O=C(c1cc(COc2cccc3cnccc23)on1)N1CCCC(CCCO)C1 (centres unmarked) | -9.49
21 | COCc1cc(C)nc(SCc2ccc(F)cc2)c1C#N | 11.7
22 | COc1ccc(C(CNC(=O)CSc2ccccc2C)N(C)C)cc1 (centres unmarked) | 14.6
23 | COC(=O)[C@H](C)NC(=O)NCc1ccco1 | 3.77
24 | O=C(CSc1nnc(-c2ccc(S(=O)(=O)N3CCOCC3)cc2)o1)c1ccccc1F | 6.24
25 | Cc1noc(C)c1C(=O)OCC(=O)N1CCN(S(=O)(=O)c2ccc3ccccc3c2)CC1 | -0.987
26 | COc1ccccc1NC(=O)c1ccccc1Nc1ccccc1 | 13.8
27 | Cc1cc2cc(CN(C(=O)C3CC3)C3CCCC3)c3nnnn3c2cc1C | 5.24
28 | c1ccc(CCNc2ncnc3scc(C4COc5ccccc5O4)c23)cc1 (centres unmarked) | 15
29 | CCc1ccc(Nc2nnc(SCC(=O)Nc3sccc3C(N)=O)s2)cc1 | 12.1
30 | CC(=O)Nc1ccc(S(=O)(=O)Nc2ccc3c(c2)OCCO3)cc1 | 12.8
31 | CCCCOc1ccc(CSc2nncn2N)cc1 | 4.79
32 | CC1CCN(S(=O)(=O)c2cccc(C(N)=O)c2)CC1 | -4.37
33 | Nc1nnc(-c2ccc(F)cc2)s1 | 0.523
34 | Cc1ccc(NC(=O)C2=C(O)c3sccc3N(C)S2(=O)=O)cc1 | 18.9
35 | COc1ccc(CCNC(=O)c2ccc(CN3CCC(Cc4ccccc4)CC3)cc2)cc1 | 18.2
36 | O=C(Nc1ccc(Cl)cc1)Nc1csc([N+](=O)[O-])c1 | 15.3
37 | O=c1nc(/C=C/c2cc([N+](=O)[O-])ccc2Cl)cc(C(F)(F)F)[nH]1 | 9.45
38 | S=C(NCc1ccco1)N1CCN(C/C=C/c2ccccc2)CC1 | -5.33

Row | Compound | hERG current change (%, negative = inhibition) at 1uM [%]
39 | Cc1nnc(SCC(=O)NNC(=O)c2ccc(Br)cc2)n1C | 31.8
40 | COc1ccc(S(=O)(=O)NC2CCCCC2)cc1C(=O)N1CCCCC1 | 0.2
41 | O=C1c2oc3ccc(F)cc3c(=O)c2C(c2cccc(O)c2)N1CCCN1CCOCC1 (centres unmarked) | 9.73
42 | Cc1cc2[nH]c(=O)c(=O)[nH]c2cc1S(=O)(=O)Nc1ccccc1F | 3.1
43 | COc1ccc(OC)c(NC(=S)NCc2cccs2)c1 | -2.84
44 | O=C(O)C1C2CCCCC2=C2CCCCC2C1C(=O)c1ccccc1 (centres unmarked) | 9.67
45 | O=C(NCCc1ccc(Cl)cc1)c1ncn[nH]1 | 10.5
46 | Cc1ccc(O)c(C(=O)c2cc(C#N)c(=O)n(-c3c(C)n(C)n(-c4ccccc4)c3=O)c2)c1 | 6.74
47 | COc1cccc(C(=O)O/N=C(\N)c2ccccn2)c1 | 3.87
48 | COc1ccc(OCCN2CCN(C(=O)c3ccc(OC)c(OC)c3)CC2)cc1 | -35.6
49 | O=S(=O)(c1cccc(C(F)(F)F)c1)N1CCC(c2cc(-c3cccc4ccccc34)n[nH]2)CC1 | 11.5
50 | Nc1nc(CN2CCN(Cc3ccccc3)CC2)nc(Nc2ccccc2)n1 | -56.3
51 | CCOc1ccccc1N(CC(=O)NCC1CCCO1)C(=O)CNS(=O)(=O)c1ccccc1 (centres unmarked) | 9.45
52 | COc1cccc(NC2=NC3(CCCCC3)N=C(N)N2)c1 | 15.1
53 | Cc1nn(CC(=O)Nc2ccncc2)c(C)c1[N+](=O)[O-] | 8.43
54 | Br.CCOCc1cn(CC(=O)c2ccc(Cl)cc2)c(C)nc1=N | 12.1
55 | O=C(Nc1nnc(S(=O)(=O)N2CCOCC2)s1)c1ccc(F)cc1 | 6.29
56 | CCc1ccccc1NC(=O)Cn1nc(C(F)(F)F)cc1C1CC1 | 17.5
